{"source": "the supplement of paper PMC9446081", "note": "Out of some 39,000 compounds screened, about 220 (0.56%) showed activity. The list shows a part of the results.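 Note: static incubation at 37 °C against the wild-type strain, values averaged over two biological replicates.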"}
{"test_system": "Escherichia coli K-12 BW25113", "assay": "relative growth (OD600 normalised to plate interquartile mean) (fraction); higher = less growth inhibition, active = 0.2 or less", "settings": "50 µM; LB; incubation time: overnight (16-24 h)"}
{"smiles": "CCCN(C)C[C@H]1Oc2cc(C#Cc3ccccc3OC)ccc2S(=O)(=O)N([C@@H](C)CO)C[C@H]1C", "relative growth": "inactive: 1.01"}
{"smiles": "COc1ccc(S(=O)(=O)N2C[C@H](O)COC[C@@H]3O[C@H](CC(=O)N[C@H]4CCN(Cc5ccccc5)C4)CC[C@H]32)cc1", "relative growth": "inactive: 1.03"}
{"smiles": "C[C@@H]1CN([C@H](C)CO)C(=O)Cc2cc(NC(=O)Nc3ccc(F)cc3)ccc2O[C@@H]1CN(C)S(=O)(=O)c1cn(C)cn1", "relative growth": "inactive: 1.02"}
{"smiles": "COc1ccc2c3c(n(c2c1)C)[C@H](CO)N(C[C@]13CN(C1)S(=O)(=O)c1cn(cn1)C)C(=O)Nc1ccc(cc1)F", "relative growth": "inactive: 1.02"}
{"smiles": "C[C@@H]1CCCCO[C@@H](CN(C)C(=O)CCC(F)(F)F)[C@@H](C)CN([C@@H](C)CO)C(=O)c2cc(NC(=O)CCC(F)(F)F)ccc2O1", "relative growth": "inactive: 0.984"}
{"smiles": "C[C@H]1CCCCO[C@@H](CN(C)Cc2ccccc2)[C@@H](C)CN([C@@H](C)CO)C(=O)c2cc(NC(=O)c3ccccc3)ccc2O1", "relative growth": "inactive: 0.996"}
{"smiles": "CC(C)NC(=O)N(C)C[C@H]1Oc2ccc(NC(=O)C3CCCCC3)cc2C(=O)N([C@@H](C)CO)C[C@@H]1C", "relative growth": "inactive: 1.01"}
{"smiles": "C[C@H](CO)N1C[C@H](C)[C@H](CN(C)S(=O)(=O)c2ccc(Cl)cc2)Oc2ccc(NS(=O)(=O)c3cn(C)cn3)cc2C1=O", "relative growth": "inactive: 1.01"}
{"smiles": "COc1ccccc1-c1cnc2c(c1)C(=O)N([C@H](C)CO)C[C@H](C)[C@@H](CN(C)C(=O)c1cccnc1)O2", "relative growth": "inactive: 0.987"}
{"smiles": "COc1ccc(S(=O)(=O)N(C)C[C@@H]2OCCCC[C@H](C)Oc3ccc(NC(=O)C4CCCCC4)cc3C(=O)N([C@@H](C)CO)C[C@@H]2C)cc1", "relative growth": "inactive: 1.02"}
{"smiles": "c1ccc(-c2ccc([C@H](c3ccccc3)n3ccnc3)cc2)cc1", "relative growth": "inactive: 0.983"}
{"smiles": "C[C@@H]1CCCCO[C@H](CN(C)Cc2ccc(Cl)c(Cl)c2)[C@@H](C)CN([C@@H](C)CO)C(=O)c2cc(NS(=O)(=O)c3ccccc3)ccc2O1", "relative growth": "inactive: 0.981"}
{"smiles": "O=C(C[C@@H]1C[C@H]2c3cc(NC(=O)NC4CCCC4)ccc3O[C@H]2[C@H](CO)O1)NCc1ccc(-c2ccccc2)cc1", "relative growth": "inactive: 0.963"}
{"smiles": "Cc1noc(C)c1NC(=O)N[C@@H]1C=C[C@@H](CC(=O)NCCCN(C)C)O[C@@H]1CO", "relative growth": "inactive: 0.98"}
{"smiles": "C[C@@H]1CN([C@@H](C)CO)C(=O)c2cc(NC(=O)C3CC3)ccc2O[C@@H]1CN(C)Cc1ccc(C(=O)O)cc1", "relative growth": "inactive: 0.932"}
{"smiles": "C[C@@H]1CN([C@@H](C)CO)S(=O)(=O)c2ccc(C#CC3(O)CCCC3)cc2O[C@@H]1CN(C)C(=O)Cc1cccnc1", "relative growth": "inactive: 1.01"}
{"smiles": "CCCC#Cc1cnc2c(c1)C(=O)N([C@@H](C)CO)C[C@H](C)[C@H](CN(C)S(=O)(=O)c1cn(C)cn1)O2", "relative growth": "inactive: 0.987"}
{"smiles": "C[C@@H]1CN([C@@H](C)CO)C(=O)c2cccc(NC(=O)C3CCOCC3)c2O[C@H]1CN(C)S(=O)(=O)c1ccc(Cl)cc1", "relative growth": "inactive: 0.99"}
{"smiles": "CN1CCN(C(=O)C[C@H]2CC[C@@H]3[C@H](COC[C@@H](O)CN3Cc3ccc4c(c3)OCO4)O2)CC1", "relative growth": "inactive: 0.969"}
{"smiles": "C[C@@H]1CCCCO[C@@H](CN(C)Cc2ccc(C(F)(F)F)cc2)[C@@H](C)CN([C@H](C)CO)C(=O)c2cc(NC(=O)c3ccccc3)ccc2O1", "relative growth": "inactive: 1.01"}
{"smiles": "COc1ccc(NC(=O)N(C)C[C@@H]2OCCCC[C@@H](C)Oc3ccc(NC(=O)C4CCCCC4)cc3C(=O)N([C@H](C)CO)C[C@H]2C)cc1", "relative growth": "inactive: 1.03"}
{"smiles": "Cc1ccc(S(=O)(=O)Nc2ccc3c(c2)C(=O)N([C@H](C)CO)C[C@H](C)[C@@H](CN(C)Cc2ccc(C(=O)O)cc2)OCCCC[C@H](C)O3)cc1", "relative growth": "inactive: 0.998"}
{"smiles": "CC(=O)Oc1cncc(C(=O)O)c1", "relative growth": "inactive: 1.02"}
{"smiles": "C[C@@H]1CN([C@@H](C)CO)C(=O)c2ccccc2-c2ccccc2CO[C@@H]1CN(C)C(=O)Nc1cccc(C(F)(F)F)c1", "relative growth": "inactive: 1.02"}
{"smiles": "Cc1ccc(S(=O)(=O)Nc2ccc3c(c2)CC(=O)N([C@H](C)CO)C[C@H](C)[C@H](CN(C)C(=O)Nc2ccc(C(F)(F)F)cc2)O3)cc1", "relative growth": "inactive: 0.996"}
{"smiles": "C[C@H](CO)N1C[C@H](C)[C@@H](CN(C)CC2CCCCC2)Oc2ccc(NC(=O)Nc3ccccc3)cc2C1=O", "relative growth": "inactive: 0.997"}
{"smiles": "C[C@H](CO)N1C[C@H](C)[C@@H](CN(C)S(=O)(=O)c2cn(C)cn2)Oc2ccc(NC(=O)CCN3CCOCC3)cc2CC1=O", "relative growth": "inactive: 0.983"}
{"smiles": "Cc1ccc(S(=O)(=O)Nc2ccc3c(c2)C(=O)N([C@@H](C)CO)C[C@H](C)[C@H](CN(C)S(C)(=O)=O)O3)cc1", "relative growth": "inactive: 0.95"}
{"smiles": "O=C1NC(=O)[C@@H](c2ccccc2)N1", "relative growth": "inactive: 1.01"}
{"smiles": "C[C@@H]1CN([C@@H](C)CO)C(=O)c2cc(C#Cc3cccnc3)cnc2O[C@H]1CN(C)S(C)(=O)=O", "relative growth": "inactive: 0.897"}
{"smiles": "COc1ccc(S(=O)(=O)N(C)C[C@H]2Oc3ccc(NC(=O)C4CC4)cc3C(=O)N([C@@H](C)CO)C[C@@H]2C)cc1", "relative growth": "inactive: 1.01"}
{"smiles": "COc1ccc(S(=O)(=O)N(C)C[C@H]2Oc3ccc(NS(=O)(=O)c4cccs4)cc3C(=O)N([C@@H](C)CO)C[C@H]2C)cc1", "relative growth": "inactive: 1.04"}
{"smiles": "CC[C@@H](C)NCc1ccsc1", "relative growth": "inactive: 0.977"}
{"smiles": "Cn1cnc([N+](=O)[O-])c1Sc1[nH]cnc2ncnc1-2", "relative growth": "inactive: 1.03"}
{"smiles": "Cc1noc(C)c1NC(=O)Nc1ccc2c(c1)C(=O)N([C@@H](C)CO)C[C@H](C)[C@H](CN(C)S(=O)(=O)c1ccc(F)cc1)OCCCC[C@@H](C)O2", "relative growth": "inactive: 1.01"}
{"smiles": "C[C@@H]1CN([C@@H](C)CO)C(=O)c2cc(NC(=O)CCN3CCOCC3)ccc2O[C@H]1CN(C)S(=O)(=O)c1cccs1", "relative growth": "inactive: 1.01"}
{"smiles": "CC(C)NC(=O)N(C)C[C@H]1Oc2ccc(NS(=O)(=O)c3ccccc3)cc2CC(=O)N([C@@H](C)CO)C[C@H]1C", "relative growth": "inactive: 0.994"}
{"smiles": "O=C(NCC1CC1)[C@@H]1[C@@H](CO)[C@@H]2Cn3c(cccc3=O)[C@H]1N2C(=O)c1cccnc1", "relative growth": "inactive: 0.99"}
